Values of other authors, collected in patent US20250340579A1 (priority 2022, published 2025).

Details: dissociation of ionizable proton of the ligand; cited from earlier work

SMILES | pKa
c1c[nH]cn1 [imidazole] | 7.0
c1nnn[nH]1 [tetrazole] | 4.7
